This note sets out measurements from PubChem BioAssay AID1240 (Sanford-Burnham Center for Chemical Genomics, 2008).

Structures are written as SMILES. Among all 50,000 compounds or so, about 800 (1.6%) showed an effect of 50% or more. Some of the results follow.

The experiment has as its target Bcl-2-like protein 10 (Homo sapiens) (UniProt Q9HD36). As to the kind of experiment: TR3 peptide-Bcl-B binding displacers, biochemical primary FP assay, phenotype converters (AID 1240).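 Note: 0% = Bcl-B with tracer peptide and DMSO and 100% = tracer peptide lacking Bcl-B.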 The settings on record: GST-Bcl-B / FITC-TR3 peptide fluorescence polarization; stronger effect = higher value; compound at 3.75 mg/L.
Sequence of UniProt Q9HD36 (Q9HD36 whole entry, looked up): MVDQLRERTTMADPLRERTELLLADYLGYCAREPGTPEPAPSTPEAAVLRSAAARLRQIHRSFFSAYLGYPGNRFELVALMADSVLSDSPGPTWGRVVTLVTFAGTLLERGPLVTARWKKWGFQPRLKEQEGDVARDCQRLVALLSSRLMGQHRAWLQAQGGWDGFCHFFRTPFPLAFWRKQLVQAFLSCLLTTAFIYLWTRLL
For the molecule `COc1cc(NC(=O)c2ccc(Cl)c(Cl)c2)c(OC)cc1NC(C)=O`, the displacement was found to be 6.3%.
Next, `COn1c(=O)c(=O)n(OC)c2ccccc21`: 9.9%.
For `CN(C)C(=O)c1ccc(Br)cc1` the value was 1.7%; for `COc1cccc(C2=N/C(=C\N(C)C)C(=O)O2)c1`, 0.4%.
`COc1cc2c(C)nc3c(c(C)nn3C)c2cc1OC`: the displacement was -1.5%.
Next, `Nc1ccc(Nc2nc(-c3ccc(Br)cc3)cs2)cc1`: 11.4%; `CC(=O)NS(=O)(=O)c1ccc(NC(=O)c2ccc3c(c2)OCO3)cc1`: 19.5%.
Next, `O=C(NC(=S)N1CCOCC1)c1ccccc1`: 12.2%.
On to `Clc1ccc(-c2nnc(-c3cccs3)o2)cc1`, for which the displacement is -3.6%.
Next, `CC1=CC(C)(C)N(C(=O)C(C)N2C(=O)c3ccccc3C2=O)c2cc(C)ccc21` (stereo unspecified): 9.7%.
In the case of `COc1ccc(C2C(C(C)=O)=C(O)C(=O)N2CCN(C)C)cc1OC` (stereo unspecified), the displacement was -7%.
Consider `O=C(Nc1cccc(Cl)c1)c1cc2nc(-c3ccc4c(c3)OCO4)cc(C(F)(F)F)n2n1`, for which the displacement was 28.1%.
With `Oc1cccc(-n2c(O)c(/C=C3\C=Nc4ccccc43)sc2=S)c1`, the displacement was -26.6%.
Next, `CCN(CC)CC1OCc2ccccc2CO1`: -11.3%; `COc1ccc(/C=C2\SC(=S)N(CCC(N)=O)C2=O)cc1`: -0.6%.
Turning to `COc1ccc(S(=O)(=O)N2CCN(Cc3ccc([N+](=O)[O-])cc3)CC2)cc1`, the displacement was -9.1%.
Regarding `COc1ccc(/C=C/C(=O)Nc2ccc(OC)c(OC)c2)cc1OC`, the displacement is -7.8%.
For `CCS/C(=N/Nc1ccc(C)cc1)C(C)=O` the value was 6.3%; for `CS(=O)(=O)N(CC(=O)N1CCOCC1)c1ccccc1Cl`, 9.5%.
Next, `CCN(CC)C(=O)COc1ccc(-c2ccccc2)cc1`: 16.6%.
Next, `c1ccc(-c2cn3c4c(sc3n2)CCCC4)cc1`: -6%.
For the molecule `CCOC(=O)c1cc2ccc(O)cc2oc1=O`, the displacement turned out to be 15.7%.
For the molecule `Cc1ccccc1NC(=O)CN(c1ccc(Cl)cc1)S(C)(=O)=O`, the displacement was determined as 8%.
For `CC(=O)NC1=NN(C(C)=O)C(C)(c2cccc(NC(C)=O)c2)S1` (stereo unspecified) the value was -5.9%.
For `COc1ccccc1OCCNC(=O)c1ccc(F)c2ccccc12` the value was -8.4%; for `O=C(c1sc2cc(F)ccc2c1Cl)N1CCCCC1`, 9.1%; for `O=C1N/C(=N/N=C/c2cccs2)SC1Cc1ccc(Cl)cc1Cl` (stereo unspecified), 5.1%.
Next, `O=C(c1ccccc1Cl)N(C1CCCCC1)C1CCCCC1`: -0.7%; `O=C(CSc1nc2ccccc2o1)Nc1ccc2c(c1)OCO2`: 11.9%; `COc1ccc(C(=O)Nc2nc(C34CC5CC(CC(C5)C3)C4)cs2)cc1`: 10%.
For `Cc1cc(C)c2nc3s/c(=C/c4cc([N+](=O)[O-])ccc4Cl)c(=O)n3c2c1`, the displacement is -9.4%.
Next, `Cc1ccc(C(=O)N2c3ccccc3-c3c(ssc3=S)C2(C)C)cc1`: -9.2%.
For `CC(=O)Oc1ccc2nc(-c3ccc(C(C)(C)C)cc3)oc(=O)c2c1` the value was -1.2%; for `Cc1nn(-c2ccc(Br)cc2)c(=O)c2ccccc12`, -0.3%; for `O=C(NC(NC(=S)Nc1cccc2ccccc12)C(Cl)(Cl)Cl)c1ccccc1` (stereo unspecified), 18.6%.
Next, `CCOC(=O)c1ccc(-c2ccc(/C=C3/C(=O)NC(=O)N(c4ccccc4)C3=O)o2)cc1`: 88.5%; `CCOC(=O)c1ccc(P(C)(C)=O)cc1`: 1.6%.
For the molecule `CCOc1ccc(N2C(=O)C3C(C2=O)C2(C)C(=O)C3(C)C(c3ccccc3)=C2c2ccccc2)cc1` (stereo unspecified), the displacement is -3.4%.
On to `Cc1ccc(/C=N/NC(=O)Cc2nnc(N)s2)cc1`, for which the displacement was determined as 2.2%.
For `COC(=O)c1nnn(-c2cc3nccnc3cc2F)c1C(=O)OC` the value was 14.8%.
For `Cc1ccc(N(CC(=O)NCC(C)NC(=O)CN(c2ccc(C)cc2)S(C)(=O)=O)S(C)(=O)=O)cc1` (stereo unspecified) the value was 8.3%; for `Cc1sc(NC(=O)c2ccco2)c(C(N)=O)c1C`, -1.7%.
Next, `COc1ccc(CNCc2ccc([N+](=O)[O-])cc2)c(OC)c1`: 1.2%.
For the molecule `O=S(=O)(NCCc1ccccc1)c1ccc(Br)cc1`, the displacement is -9.7%.
Regarding `Cc1c(OCC(=O)OC(C)C)ccc2c3c(c(=O)oc12)CCCC3`, the displacement is -5.1%.
Next, `Nc1c(Cl)cc(N2C(=O)C3C4c5ccccc5C(c5ccccc54)C3C2=O)cc1Cl` (stereo unspecified): 2.4%.
Next, `Cc1cccc(NCN2C(=O)CSC2=O)c1`: 3.1%.
Consider `CCCNC(=O)OCC12COC3c4ccccc4OC(C)(CC1C)C3C2C` (stereo unspecified), for which the displacement was -7.5%.
`C(=Nc1ccc2c(c1)OCCOCCOc1cc(N=Cc3ccccc3)ccc1OCCOCCO2)c1ccccc1`: the displacement turned out to be 5.3%.
On to `CS(=O)(=O)N(Cc1ccccc1)c1ccccc1C(=O)O`, for which the displacement amounted to 10.5%.
Next, `CCCC(C)NC(=O)c1ccc(OC)c([N+](=O)[O-])c1` (stereo unspecified): 16.4%; `CCOC(=O)c1c(NC(=O)C2CCCCC2)sc(C(=O)Nc2ccccc2F)c1C`: 24.1%; `COc1ccc(Cl)cc1C(=O)Nc1cc2nn(-c3ccc(C)cc3)nc2cc1C`: -2%.
Take `COc1ccccc1/C=N/NC(=O)C(C)Oc1ccc(Cl)cc1` (stereo unspecified): the displacement was -2.9%.
Turning to `C=COCCNC(=O)C(=O)Nc1ccccc1`, the displacement was -0.6%.
As for `C=CCOc1c(Cl)cc(/C=C2/C(=O)NN(c3cccc(Br)c3)C2=O)cc1OC`, the displacement was 2.6%.
For the molecule `O=C(Cc1nc2ccccc2[nH]c1=O)Nc1cccc(C(F)(F)F)c1`, the displacement was -2%.
For `O=C(Nc1ccccc1Oc1ccccc1)c1cc2cc(Cl)cc(Cl)c2oc1=O` the value was 12.8%.
For `COc1ccc(/C=C/C(=O)c2ccc(Br)cc2)c(OC)c1` the value was 10.2%; for `COC(=O)C1=NNC2(C)C(=O)N(c3ccccc3OC)C(=O)C12` (stereo unspecified), -3.9%.
In the case of `O=C(NCCc1ccc(F)cc1)C(=O)Nc1ccccc1`, the displacement amounted to 4.4%.
Next, `Cc1ccc(-n2nc3ccc(NC(=O)c4ccccc4F)cc3n2)cc1`: 3.9%; `Cc1ccc(OCC(=O)Nc2cccc(S(N)(=O)=O)c2)cc1C`: -2.7%.
Turning to `Nc1ccc2nc(SCC(=O)N3CCOCC3)sc2c1`, the displacement was -0.3%.
With `O=C(N/N=C/c1ccc([N+](=O)[O-])cc1)c1cc(-c2ccc(Cl)cc2)n[nH]1`, the displacement was -8.7%.
Next, `CCNC(=S)NNC(=O)c1cc(-c2ccccc2)nc2ccccc12`: -13.1%.
Consider `Cc1ccc(C#N)c(SCC(N)=O)n1`, for which the displacement is -9.8%.
For `Cc1ccc(/C=C/C(=O)Nc2cccc(C(F)(F)F)c2)o1` the value was 0.3%; for `Cc1cccc(N2C(=O)/C(=C/c3ccccc3[N+](=O)[O-])SC2=S)c1C`, 3.2%.
As for `Cc1ccc(-c2nc3ncccc3o2)cc1NC(=O)C1CCCCC1`, the displacement worked out at 4.5%.
With `CCOC(=O)C1=C(C)N(c2ccccc2)C(=S)NC1c1ccc(OC)cc1` (stereo unspecified), the displacement is -16.5%.
Next, `COc1ccc(OC)c(C(O)c2nc3ccccc3n2C(C)C)c1` (stereo unspecified): -11.6%; `COCCCNC(=O)CN(c1ccc(Br)cc1)S(C)(=O)=O`: 3.3%; `Cc1ccccc1C(=O)Nc1cccc(NC(=O)c2ccc(-c3cccc(Cl)c3)o2)c1`: 0.6%.
Regarding `CCc1cc2c(s1)SC(c1ccc([N+](=O)[O-])cc1)NC2=O` (stereo unspecified), the displacement worked out at 12.6%.
As to `CCOC(=O)Cc1cc(OC)c(OC)cc1/C(C)=N/Nc1ccccc1`, the displacement is -6%.
For the molecule `CCC(CO)N=CC1=C(O)C(C(=O)c2ccccc2)CCC1=O` (stereo unspecified), the displacement was 14.8%.
Next, `CN1C(=O)/C(=C2\SC(=S)N(C3CCCCC3)C2=O)c2ccccc21`: -3.1%.
Regarding `COC(=O)C1=C(C)N(c2ccc(Cl)cc2)/C(=C\c2ccc(OCC(=O)Nc3ccccc3OC)cc2)C1=O`, the displacement was 10.4%.
For `C(=N\Nc1nncn1/N=C/c1ccccc1)/c1ccccc1` the value was -0.9%; for `Cc1cc(C)nc(NC(=O)c2cc(-c3ccc(C)s3)nc3ccccc23)c1`, 13.1%.
Take `Cc1ccc(OCC(=O)Oc2ccc(Cl)cc2C)cc1C`: the displacement was 8.7%.
For `C=CCc1cccc2cc(C(=O)Nc3ccc([N+](=O)[O-])cc3C)c(=O)oc12` the value was -3.3%; for `Cc1ccc(-n2c(O)c(/C=N/N(C)C)c3ccccc3c2=O)cc1`, 1.8%; for `CCOc1cc(/C=N/n2cnnc2)ccc1OCCOc1ccc(C(C)CC)cc1` (stereo unspecified), -1%.
For `Cc1ccc(OCC(=O)NNC(=O)c2cccc(F)c2)c(C)c1`, the displacement worked out at 1.1%.
Next, `Nc1nc(/C=C/c2cccc([N+](=O)[O-])c2)cc(/C=C/c2cccc([N+](=O)[O-])c2)n1`: 15.4%; `Cc1ccc(C(=O)N/C(=C\c2cccc([N+](=O)[O-])c2)C(=O)Nc2ccc(C)c(C)c2)cc1`: -0.9%.
For `O=C(CSCC(=O)Nc1ccccc1[N+](=O)[O-])Nc1ccccc1` the value was -17.7%.
For the molecule `CN1C(=O)c2ccc(NCCN3C(=O)c4ccccc4C3=O)cc2C1=O`, the displacement is -5.3%.
For `CCOC(=O)C1=C(O)/C(=C/c2cccc(Br)c2)SC1=Nc1ccc([N+](=O)[O-])cc1` the value was 63.1%; for `COc1ccccc1-c1nnc(NC(=O)c2ccc(F)cc2)s1`, 0.7%; for `COc1ccccc1-c1c(C#N)c(N)c(C#N)c2c1CCCC2`, -1.1%.
For the molecule `O=C(NC1CS/C(=C/c2ccccc2)C1O)c1ccccc1` (stereo unspecified), the displacement turned out to be 1.2%.
Regarding `CC1=C(C(=O)Nc2ccc(Cl)cc2)C(c2cccc([N+](=O)[O-])c2)NC(=S)N1` (stereo unspecified), the displacement is 11.6%.
Next, `COc1ccc(NC(=O)C(=O)NCc2ccco2)cc1OC`: 14.1%.
For `Cc1ccc(NC(=O)c2cc3ccccc3o2)cc1` the value was 2.5%; for `COc1ccc(/C=C(\NC(=O)c2ccc(Cl)cc2)C(=O)NCC2CCCO2)cc1OC` (stereo unspecified), 8.3%; for `COc1ccc(C(=O)/C=C/c2cn(Cc3ccccc3)c3ccccc23)cc1`, 9.7%.
For the molecule `O=C(O)c1ccc(-c2ccc(-c3nc4sc5c(c4c(=O)[nH]3)CCCC5)o2)cc1`, the displacement was -32.4%.
For `COc1ccc(CC(=O)Nc2ccc(Nc3ccccc3)cc2)cc1OC` the value was 0%; for `CCCCN(CCCC)S(=O)(=O)c1ccc(Cl)cc1`, 11.4%; for `CC(C)OC(C(=O)c1ccccc1)c1ccccc1` (stereo unspecified), 10%.
For `O=C(NNc1nc2ccccc2s1)c1cccnc1`, the displacement was -21.3%.
For `COc1cc([N+](=O)[O-])ccc1NC(=O)c1cc(Cl)ccc1OC` the value was 1.8%; for `CN(/C(=N/S(=O)(=O)c1ccccc1)c1ccccc1)S(=O)(=O)c1ccccc1`, 2.9%.
Take `O=C(/C=C/c1ccc(Cl)cc1)Nc1ccc(NC(=O)c2ccco2)cc1`: the displacement was 5.8%.
For `O=C(Nc1ccccc1)C1CC(=O)N(c2cccc([N+](=O)[O-])c2)C1` (stereo unspecified) the value was -4.9%.
Next, `Cc1cccc(NC(=O)c2ccccc2NC(=O)c2ccccc2)c1`: -4.2%; `Cc1cc(C(=O)N/N=C/c2ccccc2[N+](=O)[O-])n[nH]1`: -13.5%; `Clc1ccc(Oc2nc3ccccc3n3cnnc23)cc1`: 15.8%.
